Experimental data reported in paper PMC4336329 (PLoS ONE, 2015).
Hit rate of the full screen: of about 310,000 compounds, about 2,200 (0.71%) showed an effect of 50% or more. The effect is printed as a negative number. Some of the results follow.

biological target: human ether-à-go-go-related gene (hERG) potassium channel (human, UniProt Q12809); assay: primary screen, population patch clamp on CHO cells stably expressing hERG
Sequence (Q12809 whole entry, looked up): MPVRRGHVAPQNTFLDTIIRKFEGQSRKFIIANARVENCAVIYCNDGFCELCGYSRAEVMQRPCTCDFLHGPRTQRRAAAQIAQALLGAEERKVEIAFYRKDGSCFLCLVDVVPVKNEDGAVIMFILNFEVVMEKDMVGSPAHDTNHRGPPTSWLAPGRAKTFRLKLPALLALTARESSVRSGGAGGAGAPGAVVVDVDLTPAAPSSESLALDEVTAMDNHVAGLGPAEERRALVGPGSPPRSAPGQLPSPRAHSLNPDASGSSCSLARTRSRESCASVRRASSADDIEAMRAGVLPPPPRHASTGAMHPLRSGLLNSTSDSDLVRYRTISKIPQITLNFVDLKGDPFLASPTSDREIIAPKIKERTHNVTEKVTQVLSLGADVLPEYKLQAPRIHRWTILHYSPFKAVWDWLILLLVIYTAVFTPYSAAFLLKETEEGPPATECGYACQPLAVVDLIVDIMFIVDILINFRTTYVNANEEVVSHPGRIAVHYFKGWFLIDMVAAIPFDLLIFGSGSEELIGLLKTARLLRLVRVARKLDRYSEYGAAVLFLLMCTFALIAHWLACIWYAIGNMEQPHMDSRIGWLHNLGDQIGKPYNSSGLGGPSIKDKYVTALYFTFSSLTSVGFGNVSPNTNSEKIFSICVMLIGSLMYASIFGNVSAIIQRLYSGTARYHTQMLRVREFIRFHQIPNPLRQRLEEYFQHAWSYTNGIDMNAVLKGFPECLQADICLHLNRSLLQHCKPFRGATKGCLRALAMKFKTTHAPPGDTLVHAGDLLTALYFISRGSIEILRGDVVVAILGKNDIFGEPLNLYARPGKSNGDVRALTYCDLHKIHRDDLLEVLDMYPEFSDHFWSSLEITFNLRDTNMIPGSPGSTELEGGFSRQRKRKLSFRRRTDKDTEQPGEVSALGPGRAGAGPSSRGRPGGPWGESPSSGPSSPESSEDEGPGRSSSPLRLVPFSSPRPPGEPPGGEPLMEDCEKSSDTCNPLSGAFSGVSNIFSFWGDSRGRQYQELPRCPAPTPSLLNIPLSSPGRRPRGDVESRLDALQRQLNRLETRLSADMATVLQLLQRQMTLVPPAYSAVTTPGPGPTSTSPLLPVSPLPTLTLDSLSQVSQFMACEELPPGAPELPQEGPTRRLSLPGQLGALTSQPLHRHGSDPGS

Structure (SMILES) | hERG current change (%, negative = inhibition) at 1uM
CCOC(=O)CN1C(=O)C(=O)N(Cc2cccc(C)c2)C1=O | 11.8%
COc1ccc(COCC(O)CN2CCCC(C(F)(F)F)C2)cc1 (stereo not shown) | 9.5%
Cc1cccc(OCCn2c(=S)[nH]c3ccccc32)c1 | 12.6%
Cc1ccc(-c2nc(N)sc2C)cc1 | -9.43%
COc1ccc(CC(=O)N2CCC3(CC2)NCCc2[nH]cnc23)cc1 | 13.5%
COc1ccc(N2C(=O)CC(Sc3nnc(-c4ccccc4F)n3C)C2=O)cc1 (stereo not shown) | 11.3%
COc1ccc(-c2noc(N3CCC(C(=O)Nc4cc(OC)ccc4OC)CC3)n2)cc1 | 14%
Cc1ccc(NC(=O)CCN2C(=O)CSC2=O)cc1 | 1.74%
CCc1ccccc1NC(=S)N1CCNC(=O)C1CC(=O)OC (stereo not shown) | 10.5%
O=C(CCc1ccccc1Cl)Nc1cccc(S(=O)(=O)N2CCCC2)c1 | -2.05%
COC(=O)c1sccc1NC(=O)c1ccccc1[N+](=O)[O-] | 7.08%
Clc1cccc(/C=N/N2CCN(Cc3ccccc3)CC2)c1 | 14.1%
Cc1nn(-c2ccccc2)c(Cl)c1/C=N/NC(=O)c1ccccc1NS(=O)(=O)c1cccs1 | 11.2%
CCn1c(CC(=O)Nc2ccc(C)cc2)n[nH]c1=S | 13.4%
COc1ccc(NC(=O)NCc2ccncc2)cc1 | 12.2%
CCCCN1CC[C@H]2C=CC[C@@H](C(=O)NCCc3ccccc3)[C@H]2C1=O | 8.74%
COCC(C)n1c(C)cc(C(=O)CSc2nnnn2-c2ccc(O)cc2)c1C (stereo not shown) | 5.83%
CCn1cc(C(=O)N[C@@H](CCSC)C(=O)NC(C)(C)CO)c(=O)c2cc3c(cc21)OCO3 | 17.4%
CCOC(=O)N1CCN(S(=O)(=O)N2CCCC(C(=O)NCCCN3CCCCC3)C2)CC1 (stereo not shown) | 8.07%
O=C(NCCc1cnc[nH]1)Nc1cccc(C(F)(F)F)c1 | 16%
C/C(=N\NC(=O)C1CCCC1)c1ccc(Cl)c(Cl)c1 | 8.97%
Cc1[nH]c2ccccc2c1C(=O)Cn1c(=O)oc2ccccc21 | 2.08%

Structure (SMILES) | hERG current change (%, negative = inhibition) at 1uM
CCOc1ccccc1NC(=O)CSc1nnc(NC(=O)c2ccco2)s1 | 20.2%
O=C(COC(=O)c1ccc(F)cc1Cl)NC1CCS(=O)(=O)C1 (stereo not shown) | 4.8%
O=C(NCC(c1ccc(F)cc1)N1CCOCC1)c1ccco1 (stereo not shown) | -5.93%
CCOC(=O)c1cccc(NC(=O)C(C)N2C(=O)c3ccccc3C2=O)c1 (stereo not shown) | -3.2%
Cc1cc(C)n(C(CC(=O)N2CCc3ccccc3C2)C(=O)O)n1 (stereo not shown) | -0.102%
COC(=O)C(C)n1cnc2c(nnn2-c2ccc(OC)cc2)c1=O (stereo not shown) | 13.3%
COc1ccc(OC)c(S(=O)(=O)N2CCN(C(=O)CCc3ccccc3)CC2)c1 | 14.1%
COCCNC(=O)CSc1nc2sc(C)c(C)c2c(=O)n1-c1ccccc1 | 5.79%
CCCOc1ccc(/C=C/C(=O)NC2CCCCC2)cc1 | 12.6%
CN(C)c1nnnn1-c1cccc(Oc2ncc(C(F)(F)F)cc2Cl)c1 | 11%
Fc1ccc(N2CCN(c3nc(CN4CCOCC4)nc4scc(-c5ccccc5)c34)CC2)cc1 | 6.83%
COC(=O)c1ccccc1-c1ccc(/C=N/Nc2nc(N3CCCC3)nc(N3CCCC3)n2)o1 | 14%
CN(c1ccc(C(=O)NC2CC3CCC2C3)cc1)S(C)(=O)=O (stereo not shown) | 3.94%
CN(NC1OC(=O)c2ccccc21)c1ccccc1[N+](=O)[O-] (stereo not shown) | 12.4%
O=C(Cn1cnc2ccccc21)NCc1ccccc1 | 5.93%
CSc1cccc(NC(=O)OC2CCCCCCCCCCC2)c1 | 12.7%
CN(CCC#N)C(=O)Cn1nc(Cc2ccncc2)c2ccccc2c1=O | 7.06%
Cn1c(SCC(=O)Nc2cccc(NC(=O)c3cccs3)c2)nnc1-c1ccncc1 | -0.358%
CCOC(=O)c1sc2nc(CSc3nc4ccccc4n3CC)[nH]c(=O)c2c1C | 10.2%
COC(=O)c1nc(NC(=O)c2ccccc2)n[nH]1 | 9.34%
O=C1S/C(=C\C=C\c2ccco2)C(=O)N1c1ccccc1 | 7.64%
COC(=O)[C@H](CCSC)NC(=O)Nc1cccc(C)c1C | 11%

Structure (SMILES) | hERG current change (%, negative = inhibition) at 1uM
COCCN1C(=O)N(c2cccc(OC)c2)C(=O)C1CC(=O)Nc1cccc(F)c1 (stereo not shown) | 15.8%
COc1ccc2c(Cl)c(C(=O)N/N=C3\CCCC(=O)C3)sc2c1 | 5.11%
Cc1sc2ncnc(Sc3nnnn3-c3ccccc3)c2c1C | 6.29%
Cn1c(=O)c2c(-c3ccccc3F)c3c(nc2n(C)c1=O)-c1ccccc1C3O (stereo not shown) | -4.85%
COc1ccccc1NC(=O)C(C)N1C(=O)c2ccccc2C1=O (stereo not shown) | 19.1%
Cc1ccnc(NC(=O)c2ccc(C(=O)c3ccccc3)cc2)c1 | 5.73%
Cn1cnnc1Sc1cc(N2CCN(S(=O)(=O)c3ccccc3)CC2)ccc1[N+](=O)[O-] | -5.16%
CC(=O)O/N=C/c1c(NCc2ccccc2)nc2c(C)cccn2c1=O | 2.4%
Cc1ccccc1NC(=O)/C(=C/c1ccco1)c1ccccc1 | 11%
CC(C)(C)c1ccc(OCC(=O)Nc2ccc(C(=O)Nc3ccccc3C(=O)O)cc2)cc1 | 5.21%
CC(C)c1ccc(-c2nnc(SCC(=O)NC3CC3)n2C)cc1 | 4.13%
COCCn1c(Cc2ccccc2)nnc1SC(C)C(=O)NC1CC1 (stereo not shown) | -2.23%
COc1ccccc1CP(=O)(c1ccccc1)c1ccccc1 | 1.95%
COc1cccc(/C=C(\CC(=O)O)c2nc3ccccc3s2)c1 | 15%
O=S(=O)(Nc1nc2ccccc2nc1Cl)c1ccc(F)cc1 | 8.24%
O=C(CSc1nnnn1-c1ccc2c(c1)OCO2)NCc1cccs1 | -1.56%
OCCC1CN(Cc2ccon2)CCN1CCc1ccccc1 (stereo not shown) | 5.92%
O=C(O)C(=O)O.OC1(c2ccccc2)CCNC2CCCCC21 (stereo not shown) | 7.42%
Cc1ccc(NC(=O)COC(=O)COc2ccc3ccc(=O)oc3c2)cc1[N+](=O)[O-] | -0.0259%
COc1ccc2cc(Br)ccc2c1CC(=O)NC1CC(C)(C)NC(C)(C)C1 | -2.65%
CCOc1ccc(NC(=O)NCc2cccn2C)cc1 | 10.4%
Cc1cccc(C(=O)NCC(=O)OCc2cc(=O)n3ccsc3n2)c1 | 11.1%

Structure (SMILES) | hERG current change (%, negative = inhibition) at 1uM
COc1ccc(N2CC(C(=O)Nc3ccncc3)CC2=O)cc1 (stereo not shown) | 17.1%
CCOC(=O)C1C(c2ccc(Cl)cc2)NC(=S)NC1(O)C(F)(F)F (stereo not shown) | 12.3%
Cc1ccc2nc3nc(NCC4CCCO4)c(C(=O)NC4CCCCC4)cc3c(=O)n2c1 (stereo not shown) | -76.8%
CC(=O)c1cc2c(cc1NC(=O)CN1CCOCC1)OCO2 | 4.92%
Cc1cc(C(=O)N/N=C\c2ccc(COc3ccc([N+](=O)[O-])cc3)o2)ccc1[N+](=O)[O-] | 10.9%
O=C(c1cccs1)N1CCN(Cc2ccc3c(c2)OCO3)CC1 | -4.34%
COc1ccc(-c2cc(CS(=O)(=O)c3ccccc3)on2)cc1 | -3.98%
COc1cc(C(C#N)N2CCCCC2)ccc1O (stereo not shown) | 12.1%
CN1CCN(CC(O)COCCOc2ccc(Br)cc2)CC1.Cl (stereo not shown) | 2.93%
CCOC(=O)c1c(-c2ccc(C)o2)csc1NC(=O)CSc1nnnn1-c1ccccc1 | 0.534%
COc1ccc(/C(C)=N/NC(=O)C2C3CCCCC32)c(OC)c1 (stereo not shown) | 6.42%
Cn1c(=O)c2ncn(CC(=O)Nc3cccc(-c4nc5ccccc5s4)c3)c2n(C)c1=O | 1.23%
CCN(CC)S(=O)(=O)c1ccc(F)c(C(=O)NCCC(C)C)c1 | -4.04%
COc1ccc(N(C(=O)CNC(=O)c2ccco2)C(C(=O)NCC2CCCO2)c2ccccc2)cc1Cl (stereo not shown) | 15.4%
CCc1ccccc1NC(=O)c1ccc2c(O)c(S(=O)(=O)c3ccc(OC)cc3)c(=O)[nH]c2c1 | 17.2%
O=C(O)C1CC=CCC1C(=O)Nc1ccccc1 (stereo not shown) | -5.85%
COc1cccc(N2CCN(C(=O)C3C4C=CC5(CN(Cc6ccccc6Cl)C(=O)C35)O4)CC2)c1 (stereo not shown) | 15.1%
CC(C)Oc1ccc(/C=C(\NC(=O)/C=C/c2ccco2)C(=O)NCCc2nc3ccccc3[nH]2)cc1 | 4.78%
NC(N)=NS(=O)(=O)c1ccc(N/C=C\C(=O)c2ccncc2)cc1 | 11.3%
O=C(CCc1nnc(CCCCc2ccccc2)o1)N(CCO)Cc1ccccc1 | 11.2%
Cc1cc(Oc2cc(NN3CCCCC3)c([N+](=O)[O-])cc2[N+](=O)[O-])c(C(=O)c2ccccc2)cc1Cl | 1.17%
Cl.N=C(N)SCP(=O)(c1ccccc1)c1ccccc1 | 12.5%
